The campaign covered roughly 43,000 compounds. About 200 (0.47%) were called active. Roughly 12% stayed inconclusive and do not appear here. Calls follow the shape of the dose curve; as a rule, active = well fitted cell-killing curve with a large enough effect; inconclusive = small, poorly fitted or top-dose-only effect, or effect the other way; inactive = flat fitted curve, though single readings scatter. The list shows a part of the results.
Assay: Cell viability qHTS assay in S16 Pmp22-F2sN cells; also: nearly all actives have a fitted effect of over 65% in size
Details: S16 Pmp22-F2sN Schwann cells (luciferase reporters placed in the Pmp22 gene) viability, CellTiter-Glo, 24 h; series mostly up to 57.5 µM; activity change, negative = cytotoxicity: at the top concentration
Method in brief: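 Luminescence from CellTiter-Glo, read by CCD camera after a 15 min room-temperature incubation, served as the viability signal. Reporter Schwann cells (S16 Pmp22-F2sN) had been treated with pin-transferred compounds for 24 h at 37C.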
% is scaled to controls: 0 for no effect and ±100 for the full control effect.

SMILES | activity change, negative = cytotoxicity
CC(=O)c1cccc(NC(=O)CN2C(=O)CCc3cc(S(=O)(=O)N4CCCCC4)ccc32)c1 | inactive: -11.4%
CCCCN1CC(c2nc3ccccc3n2CCCCOc2cc(C)cc(C)c2)CC1=O (stereo not given) | inactive: -20.4%
CCOc1ccc(S(=O)(=O)N2Cc3ccccc3CC2C(=O)Nc2ccc(NC(C)=O)cc2)cc1 (stereo not given) | inactive: -26.3%
CCN(CC)CCNC(=O)C(=O)Nc1c2c(nn1-c1ccc(F)cc1)CSC2 | inactive: 18.9%
COc1cccc2cc(C(=O)Nc3ccc(CC(=O)O)cc3)c(=O)oc12 | inactive: 4.41%
CCc1ccc(NC(=O)CSc2nnc3[nH]c(=O)cc(-c4ccccc4)n23)cc1 | inactive: -11.7%
CCOC(=O)c1c(C)[nH]c(CCC(=O)Nc2ccccc2C(F)(F)F)c1C | inactive: 2.21%
O=C(CCS(=O)(=O)c1cc2c(cc1Cl)NC(=O)CO2)NCCc1ccccc1 | inactive: 17.9%
COc1ccc(C(=O)Nc2ccc(S(=O)(=O)Nc3cc(C)nc(C)n3)cc2)cc1 | inactive: 2.01%
CCCS(=O)(=O)N1CC(=O)N(c2cccc(F)c2)C(C)(C(=O)NC2CCCCCC2)C1 (stereo not given) | inactive: -5.44%
CCN(C(=O)CCc1nc(-c2ccc(C)cc2)no1)c1cccc(C(F)(F)F)c1 | inactive: 1.7%
COc1ccc(CNC(=O)c2ccc3c(O)c(S(=O)(=O)c4ccccc4)c(=O)[nH]c3c2)cc1 | inactive: -2.07%
Cc1cccc(N2CCN(C(=O)c3nn(C)c4c3CS(=O)(=O)c3ccccc3-4)CC2)c1C | inactive: -2.82%
COc1ccc(Cn2ccc3nc(C)c(C(=O)N4CCN(c5cccc(OC)c5)CC4)cc3c2=O)cc1 | inactive: -14%
COc1ccc(NC(=O)c2c(NC(=O)C(F)(F)F)sc3c2CCCCC3)cc1 | inactive: 23.9%
COc1cc(CNc2ccc3[nH]c(=O)[nH]c3c2)ccc1OCc1ccc(F)cc1Cl | inactive: -13.7%
COc1ccc(CN2CCc3c(c(=O)n4ncc(C(=O)N5CCN(c6ccccc6F)CC5)c4n3C)C2)cc1 | inactive: 1.4%
COC(=O)c1ccc2c(=O)n3nc(Nc4ccc(F)cc4F)sc3nc2c1 | inactive: 1.91%
CCN(CC)S(=O)(=O)c1ccc2c(c1)N(CC(=O)N1CCN(c3cccc(C)c3C)CC1)C(=O)CO2 | inactive: -11.9%
Cc1cc(C)c(NC(=O)Cn2c(=O)n(CCC(=O)N3CCc4ccccc4C3)c(=O)c3ccccc32)c(C)c1 | inactive: -1.66%

SMILES | activity change, negative = cytotoxicity
Clc1ccc(-n2ncc3c(NC4CCCC4)ncnc32)cc1 | inactive: 12.2%
Cc1c(CNC2CCCCC2)c(C(=O)O)c(C)n1Cc1ccc(Cl)cc1 | inactive: 3.27%
Cc1ccc(Cn2c3ccccc3c3cnn(CC(=O)Nc4cc(Cl)ccc4C)c(=O)c32)cc1 | inactive: 8.59%
Cn1nnnc1SCCCNCc1ccccc1OCc1ccc(Cl)cc1 | inactive: -22.8%
COc1ccc(Nc2ncnc3sc4c(c23)CCCC4)cc1 | inactive: -5.62%
O=C(NCc1ccccc1Cl)c1ccc(CS(=O)(=O)c2ccc(Br)cc2)o1 | inactive: 3.75%
COc1ccc(C)cc1NC(=O)Nc1nnc(N2CCCCC2)s1 | inactive: 6.53%
CCOC(=O)C1CCCN(c2nc3c(S(=O)(=O)c4ccc(CC)cc4)nnn3c3ccc(Cl)cc23)C1 (stereo not given) | inactive: -2.25%
COc1ccc(N2CCN(C(=O)c3cccn3-c3nnc(N4CCCC4)s3)CC2)cc1 | inactive: 4.07%
O=C(CSc1n[nH]c(-c2ccccc2Cl)n1)NCCc1ccccc1 | inactive: -4.47%
CCc1nn(CCCC(=O)NCc2ccc(OC(C)C)cc2)c(=O)c2cc3occc3n12 | inactive: 14%
CCOc1cc(CNS(=O)(=O)c2ccc3c(c2)C(C)(C)C(=O)N3)cc(OCC)c1OCC | inactive: 11.4%
CN1CCN(C(=O)C(=O)Nc2c3c(nn2-c2ccc(Cl)cc2)CSC3)CC1 | inactive: 2.69%
Cc1c(C(=O)N2CCC(C)CC2)c(S(=O)(=O)N(Cc2ccccc2)C(C)(C)C)c(C)n1C | inactive: 8.86%
COC(=O)c1ccc(C(=O)OC)c(NC(=O)CN(c2ccccc2)S(=O)(=O)N(C)C)c1 | inactive: 0.457%
CCOc1ccccc1CNC(=O)C1CCCN(c2nnc(C)c3c(C)n(-c4ccccc4)nc23)C1 (stereo not given) | inactive: -18.5%
COc1cccc(CNC(=O)CSC2=Nc3ccccc3N=C(c3ccc(F)cc3)C2)c1 | inactive: 6.85%
Cc1nn2c(=O)cc(COC(=O)c3cccc(NC(=O)COc4ccccc4C)c3)nc2s1 | inactive: 0.0649%
CCOCCCn1c(=N)c(C(=O)NCc2cccnc2)cc2c(=O)n3ccccc3nc21 | inactive: 27.1%
CCN(CC)C(=O)c1ccc2c(c1)N(Cc1ccc(C(F)(F)F)cc1)C(=O)c1ccccc1S2 | inactive: 25.3%

SMILES | activity change, negative = cytotoxicity
Cc1ccc(N2C(=O)CCSC23C(=O)N(Cc2ccccc2)c2ccccc23)cc1 (stereo not given) | inactive: -19.9%
Cn1c(=O)c(C(=O)O)nn(-c2ccccc2)c1=O | inactive: 18.5%
CCC(=O)NCCc1nc2cc(NC(=O)c3cccc(Br)c3)ccc2n1C | inactive: -14.7%
CCOc1ccc(CNC(=O)CSc2nnc(C)c3c(C)n(-c4ccc(Cl)cc4)nc23)cc1 | inactive: 3.81%
CCN(CC)CCSc1c(C(C)C)cnc2c1c(=O)n(C)c(=O)n2C | inactive: 11.4%
COc1cc(NC(=O)N2CCc3c(sc4c3CCCC4)C2c2ccccc2)cc(OC)c1OC (stereo not given) | inactive: -3.71%
COc1ccc(OC)c2sc(N3CCN(C(=O)c4ccco4)CC3)nc12 | inactive: 1.06%
CC(C)(C)NC(=O)C1CCN(c2nc3ccccc3nc2C(F)(F)F)CC1 | inactive: -25.8%
CCCCc1nnc(SCc2cc(=O)c3cc(F)ccc3[nH]2)n1C | inactive: -7.14%
CCN(CC)C(=O)c1c(NC(=O)c2cccc(C)c2)sc2c1CCC(C)C2 (stereo not given) | inactive: 1.43%
Cc1ccc(NC(=O)c2sc3nc(-c4cccs4)ccc3c2N)cc1F | inactive: 7.58%
O=c1[nH]c2cc(Br)ccc2n2cccc12 | inactive: -25%
O=C(c1cnc(N2CCOCC2)c2ccccc12)N1CCN(c2ccccc2)CC1 | inactive: -2.73%
COc1ccc(CNC(=O)CN2C(=O)CC(c3ccc(C)c(C)c3)=Nc3ccccc32)cc1 | inactive: -0.521%
COc1ccc(C(=O)NCCn2cc(SCc3c(F)cccc3Cl)c3ccccc32)cc1 | inactive: -7.95%
Cc1ccc(-n2ncc3c(NC4CCCCCC4)ncnc32)cc1 | inactive: 11.8%
COc1ccc(-n2c(SCc3ccccc3)nc3c([nH]c4ccccc43)c2=O)cc1 | inactive: 5.31%
COc1cccc(CNC(=O)Cn2nc(N3CCN(c4ccccc4OC)CC3)ccc2=O)c1 | inactive: -6.86%
CCOc1ccc(-n2c(=O)c3c(C)c(C)sc3n(Cc3ccccc3C)c2=O)cc1 | inactive: 6.95%
COc1ccc(C)cc1NC(=O)CN1C(=O)COc2ccc(S(=O)(=O)N3CCC(C)CC3)cc21 | inactive: 2.66%

From PubChem BioAssay AID1508642 (National Center for Advancing Translational Sciences (NCATS), 2021)
